The results in this text go back to the supplement of paper PMC4604168 (melanoma cell lines).

Some of the results follow. Repeats are few or missing, and single values can be far off.
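Note: cells treated in 1,536-well plates, then fixed and DAPI-stained, with nuclei counted from automated high-throughput microscope images.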

The test system of this experiment is WM3526. The experiment is described as follows: cell count relative to DMSO control; melanoma cells; higher = more viable cells. Conditions: library dose: standard library concentration; 72 h.
Turning to `Cc1cc(Nc2cc(N3CCN(C)CC3)nc(Sc3ccc(NC(=O)C4CC4)cc3)n2)n[nH]1` [Tozasertib] + O=C(CCCCCCC(=O)Nc1ccccc1)NO [vorinostat] (first compound 0.03 µM, partner dose 0.4 µM), the cell count was 74.1%.
`Cc1cc(Nc2cc(N3CCN(C)CC3)nc(Sc3ccc(NC(=O)C4CC4)cc3)n2)n[nH]1` [Tozasertib] + Nc1nc(F)nc2c1ncn2[C@@H]1O[C@H](CO)[C@@H](O)[C@@H]1O [fludarabine] (first compound 0.03 µM, partner dose 1 µM) displayed a cell count of 29.9%.
The result for `N#CC[C@H](C1CCCC1)n1cc(-c2ncnc3[nH]ccc23)cn1` [ruxolitinib] + C=CCNC1=C2C[C@@H](C)C[C@H](OC)[C@H](O)[C@@H](C)/C=C(\C)[C@H](OC(N)=O)[C@@H](OC)/C=C\C=C(/C)C(=O)NC(=CC1=O)C2=O [Tanespimycin] (first compound 5 µM, partner dose 0.01 µM) reads 69.3%; that for `N#CC[C@H](C1CCCC1)n1cc(-c2ncnc3[nH]ccc23)cn1` [ruxolitinib] + CO[C@@H]1[C@H](N(C)C(=O)c2ccccc2)C[C@H]2O[C@]1(C)n1c3ccccc3c3c4c(c5c6ccccc6n2c5c31)C(=O)NC4 [Midostaurin] (first compound 5 µM, partner dose 0.4 µM), 67.7%.
Turning to `Cc1cc(Nc2cc(N3CCN(C)CC3)nc(Sc3ccc(NC(=O)C4CC4)cc3)n2)n[nH]1` [Tozasertib] + COc1cc2c(Oc3ccc4[nH]c(C)cc4c3F)ncnc2cc1OCCCN1CCCC1 [cediranib] (first compound 0.03 µM, partner dose 2 µM), the cell count was 85.4%.
The same measure for `N#CC[C@H](C1CCCC1)n1cc(-c2ncnc3[nH]ccc23)cn1` [ruxolitinib] + O=C(/C=C/c1cccnc1)NCCCCC1CCN(C(=O)c2ccccc2)CC1 [FK866] (first compound 5 µM, partner dose 0.05 µM): 96.5%.
The result for `CC[C@]1(O)C[C@H]2CN(CCc3c([nH]c4ccccc34)[C@@](C(=O)OC)(c3cc4c(cc3OC)N(C=O)[C@H]3[C@@](O)(C(=O)OC)[C@H](OC(C)=O)[C@]5(CC)C=CCN6CC[C@]43[C@@H]65)C2)C1` [vincristine] + COc1cc(Nc2ncc(F)c(Nc3ccc4c(n3)NC(=O)C(C)(C)O4)n2)cc(OC)c1OC [Tamatinib] (first compound 0.0005 µM, partner dose 2 µM) reads 30%.
The same measure for `N#CC[C@H](C1CCCC1)n1cc(-c2ncnc3[nH]ccc23)cn1` [ruxolitinib] + CC1(C)NC(=O)N(c2ccc([N+](=O)[O-])c(C(F)(F)F)c2)C1=O [nilutamide] (first compound 5 µM, partner dose 5 µM): 89.2%.
As to `CC[C@]1(O)C[C@H]2CN(CCc3c([nH]c4ccccc34)[C@@](C(=O)OC)(c3cc4c(cc3OC)N(C=O)[C@H]3[C@@](O)(C(=O)OC)[C@H](OC(C)=O)[C@]5(CC)C=CCN6CC[C@]43[C@@H]65)C2)C1` [vincristine] + CC1(C)NC(=O)N(c2ccc([N+](=O)[O-])c(C(F)(F)F)c2)C1=O [nilutamide] (first compound 0.0005 µM, partner dose 5 µM), the cell count is 50.3%.
The same measure for `N#CC[C@H](C1CCCC1)n1cc(-c2ncnc3[nH]ccc23)cn1` [ruxolitinib] + CC(C)C[C@H](NC(=O)[C@H](Cc1ccccc1)NC(=O)c1cnccn1)B(O)O [Bortezomib] (first compound 5 µM, partner dose 0.005 µM): 26.2%; for `CC[C@]1(O)C[C@H]2CN(CCc3c([nH]c4ccccc34)[C@@](C(=O)OC)(c3cc4c(cc3OC)N(C=O)[C@H]3[C@@](O)(C(=O)OC)[C@H](OC(C)=O)[C@]5(CC)C=CCN6CC[C@]43[C@@H]65)C2)C1` [vincristine] + COC(=O)c1sccc1S(=O)(=O)Nc1ccc(Nc2ccccc2)cc1OC [GSK0660] (first compound 0.0005 µM, partner dose 5 µM): 49.8%; for `N#CC[C@H](C1CCCC1)n1cc(-c2ncnc3[nH]ccc23)cn1` [ruxolitinib] + CS(=O)(=O)CCNCc1ccc(-c2ccc3ncnc(Nc4ccc(OCc5cccc(F)c5)c(Cl)c4)c3c2)o1 [lapatinib] (first compound 5 µM, partner dose 4 µM): 81.8%.
The same measure for `Cc1cc(Nc2cc(N3CCN(C)CC3)nc(Sc3ccc(NC(=O)C4CC4)cc3)n2)n[nH]1` [Tozasertib] + C[C@]1(c2nc3c(C(N)=O)cccc3[nH]2)CCCN1 [Veliparib] (first compound 0.03 µM, partner dose 7 µM): 81.9%; for `N#CC[C@H](C1CCCC1)n1cc(-c2ncnc3[nH]ccc23)cn1` [ruxolitinib] + Cn1cncc1[C@@](N)(c1ccc(Cl)cc1)c1ccc2c(c1)c(-c1cccc(Cl)c1)cc(=O)n2C [tipifarnib] (first compound 5 µM, partner dose 0.05 µM): 78.8%.
As to `CC[C@]1(O)C[C@H]2CN(CCc3c([nH]c4ccccc34)[C@@](C(=O)OC)(c3cc4c(cc3OC)N(C=O)[C@H]3[C@@](O)(C(=O)OC)[C@H](OC(C)=O)[C@]5(CC)C=CCN6CC[C@]43[C@@H]65)C2)C1` [vincristine] + Cc1cc(Nc2cc(N3CCN(C)CC3)nc(/C=C/c3ccccc3)n2)n[nH]1 [ENMD2076] (first compound 0.0005 µM, partner dose 0.2 µM), the cell count was determined as 69.4%.
Consider `Cc1cc(Nc2cc(N3CCN(C)CC3)nc(Sc3ccc(NC(=O)C4CC4)cc3)n2)n[nH]1` [Tozasertib] + CC(C)CCN1c2nc(Nc3cc(F)c(O)c(F)c3)ncc2N(C)C(=O)C1C [BID1870] (first compound 0.03 µM, partner dose 1 µM), for which the cell count amounted to 68%.
`CC[C@]1(O)C[C@H]2CN(CCc3c([nH]c4ccccc34)[C@@](C(=O)OC)(c3cc4c(cc3OC)N(C=O)[C@H]3[C@@](O)(C(=O)OC)[C@H](OC(C)=O)[C@]5(CC)C=CCN6CC[C@]43[C@@H]65)C2)C1` [vincristine] + CN(NC(=O)CC(=O)NN(C)C(=S)c1ccccc1)C(=S)c1ccccc1 [STA4783] (first compound 0.0005 µM, partner dose 0.03 µM) came in with a cell count of 44.4%.
The result for `CC[C@]1(O)C[C@H]2CN(CCc3c([nH]c4ccccc34)[C@@](C(=O)OC)(c3cc4c(cc3OC)N(C=O)[C@H]3[C@@](O)(C(=O)OC)[C@H](OC(C)=O)[C@]5(CC)C=CCN6CC[C@]43[C@@H]65)C2)C1` [vincristine] + CO[C@@H]1[C@H](N(C)C(=O)c2ccccc2)C[C@H]2O[C@]1(C)n1c3ccccc3c3c4c(c5c6ccccc6n2c5c31)C(=O)NC4 [Midostaurin] (first compound 0.0005 µM, partner dose 0.4 µM) reads 44.3%; that for `N#CC[C@H](C1CCCC1)n1cc(-c2ncnc3[nH]ccc23)cn1` [ruxolitinib] + CN1CCN(c2ccc3nc(-c4c(N)c5c(F)cccc5[nH]c4=O)[nH]c3c2)CC1 [Dovitinib] (first compound 5 µM, partner dose 0.5 µM), 66.6%; that for `N#CC[C@H](C1CCCC1)n1cc(-c2ncnc3[nH]ccc23)cn1` [ruxolitinib] + CN(C)S(=O)(=O)c1ccc2c(c1)/C(=C/c1cc3c([nH]1)CCCC3)C(=O)N2 [SU6656] (first compound 5 µM, partner dose 2 µM), 82.9%.
With `Cc1cc(Nc2cc(N3CCN(C)CC3)nc(Sc3ccc(NC(=O)C4CC4)cc3)n2)n[nH]1` [Tozasertib] + O=C(Nc1cccc(Cl)c1)Nc1ncc(CCNc2ncnc3ccsc23)s1 [SNS314] (first compound 0.03 µM, partner dose 0.004 µM), the cell count is 53.5%.
`CC[C@]1(O)C[C@H]2CN(CCc3c([nH]c4ccccc34)[C@@](C(=O)OC)(c3cc4c(cc3OC)N(C=O)[C@H]3[C@@](O)(C(=O)OC)[C@H](OC(C)=O)[C@]5(CC)C=CCN6CC[C@]43[C@@H]65)C2)C1` [vincristine] + COc1ccc(Cl)c(Nc2nc3ccccc3nc2NS(=O)(=O)c2cccc(NC(=O)C(C)(C)N)c2)c1 [XL147] (first compound 0.0005 µM, partner dose 4 µM): the cell count stood at 56.9%.
The same measure for `CC[C@]1(O)C[C@H]2CN(CCc3c([nH]c4ccccc34)[C@@](C(=O)OC)(c3cc4c(cc3OC)N(C=O)[C@H]3[C@@](O)(C(=O)OC)[C@H](OC(C)=O)[C@]5(CC)C=CCN6CC[C@]43[C@@H]65)C2)C1` [vincristine] + CO[C@H]1C[C@@H]2CC[C@@H](C)[C@@](O)(O2)C(=O)C(=O)N2CCCC[C@H]2C(=O)O[C@H]([C@H](C)C[C@@H]2CC[C@@H](OCCO)[C@H](OC)C2)CC(=O)[C@H](C)/C=C(\C)[C@@H](O)[C@@H](OC)C(=O)[C@H](C)C[C@H](C)/C=C/C=C/C=C/1C [everolimus] (first compound 0.0005 µM, partner dose 0.1 µM): 43.9%; for `N#CC[C@H](C1CCCC1)n1cc(-c2ncnc3[nH]ccc23)cn1` [ruxolitinib] + c1cc(-c2cnn3cc(-c4ccc(OCCN5CCCCC5)cc4)cnc23)ccn1 [Dorsomorphin] (first compound 5 µM, partner dose 2 µM): 89.6%; for `Cc1cc(Nc2cc(N3CCN(C)CC3)nc(Sc3ccc(NC(=O)C4CC4)cc3)n2)n[nH]1` [Tozasertib] + C[C@@H]1CCN(C(=O)CC#N)C[C@@H]1N(C)c1ncnc2[nH]ccc12 [CP690550] (first compound 0.03 µM, partner dose 5 µM): 81.1%.
